In PubChem BioAssay AID485281 (National Center for Advancing Translational Sciences (NCATS), 2010):
About 260 (0.074%) of roughly 350,000 compounds were called active. This list was built around the results that the source calls inconclusive (neither active nor inactive); the mix of calls is not that of the screen. The call rests on the fitted dose curve; in most records, active means well fitted inhibition curve with a large enough effect; inconclusive means small, poorly fitted or top-dose-only effect; inactive means no such curve, though single readings can be large or run the other way. A potency beside an inconclusive call is a rough fit, not a confirmed value.

molecular target: Ferritin light chain (Equus caballus) (UniProt P02791); assay: qHTS Assay for Identification of Novel General Anesthetics; conditions: apoferritin/1-aminoanthracene competitive binding, fluorescence; activity change, negative = displacement: at 77.5 µM (top of the series); further: nearly all actives have a fitted effect of over 20% in size
Chain of UniProt P02791 (P02791 whole entry, looked up): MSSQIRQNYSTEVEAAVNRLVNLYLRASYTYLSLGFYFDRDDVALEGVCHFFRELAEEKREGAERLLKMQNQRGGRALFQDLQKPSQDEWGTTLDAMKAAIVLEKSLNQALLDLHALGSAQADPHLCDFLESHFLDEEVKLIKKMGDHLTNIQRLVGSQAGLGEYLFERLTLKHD
Procedure, shortened: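 10 uM apoferritin + 50% sat. 1-AMA, PBS; cpd 10 min RT; Ex380/Em535 endpoint; normalized to free probe vs complex; 4-param Hill fit; propofol titration as pos. ctrl.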
On the % scale 0 is the no-effect control and ±100 the full control effect; potency means the concentration at half of the fitted maximal effect; tags describe the fitted curve by direction and shape.

Potency, active:
O=c1c2c3c(sc2ncn1Cc1ccc(F)cc1)CCC3 25.1 µM

Potency, inconclusive:
CC(C)CCNC(=O)c1ccc(CSCc2cccc(F)c2)o1 56.2 µM [inhibitor, single point], CC(Oc1ccc(Cl)cc1)C(=O)Nc1ccc(S(=O)(=O)N2CCOCC2)cc1 (configuration not stated) 56.2 µM [inhibitor, single point], O=C(Cn1nc(-c2ccco2)ccc1=O)Nc1cc(Cl)ccc1Cl 20 µM [inhibitor, partial curve], COc1cccc(NC(=O)COC(=O)/C=C/c2ccc(Cl)cc2Cl)c1 28.2 µM [inhibitor, partial curve], Cc1ccc(-c2nc(NC(=O)c3nn(C)cc3[N+](=O)[O-])sc2C)cc1 15.8 µM [inhibitor, partial curve], CC(C)(C)c1ccc(/C=N/NC(=O)C[n+]2ccccc2)cc1 17.8 µM [inhibitor, partial curve], Cc1ccc(C)c(Nc2c([N+](=O)[O-])cc(C(=O)N3CC(=O)Nc4ccccc43)cc2[N+](=O)[O-])c1 28.2 µM [inhibitor, partial curve], CCn1c(C)nc2cc(S(=O)(=O)C(F)(F)C(F)C(F)(F)F)ccc21 (configuration not stated) 44.7 µM [inhibitor, single point], CCOC(=O)C1CCCCN1Cc1cc(Cl)ccc1O (configuration not stated) 22.4 µM [inhibitor, partial curve], CCN1CCc2nc3sc(C(=O)Nc4ccccc4OC(F)(F)F)c(N)c3cc2C1 22.4 µM [inhibitor, partial curve], Cc1nn(-c2ccccc2)c2[nH]c(=O)c(CNc3ccc4c(c3)OCCO4)cc12 28.2 µM [inhibitor, partial curve], O=C(CN1C(=O)c2ccccc2C1=O)NC1CCCCC1 31.6 µM [inhibitor, partial curve], CC(=O)Nc1nnc(SCc2ccccc2F)s1 6.31 µM [inhibitor, full curve], COc1ccc(Cn2c3nc4ccccc4nc3c3c(=O)n(Cc4ccco4)cnc32)cc1 15.8 µM [inhibitor, partial curve], O=C1CC(c2c[nH]c3ccccc23)C(=O)N1c1ccccc1 (configuration not stated) 50.1 µM [inhibitor, single point], CCc1ccc(NC(=O)c2ccc(Cn3nc(N4CCN(c5ccccc5)CC4)ccc3=O)o2)cc1 12.6 µM [inhibitor, partial curve], COc1ccccc1OCCCn1c(=O)sc2ccccc21 11.2 µM [inhibitor, partial curve], COc1ccccc1Oc1ncnc2c1oc1ccccc12 35.5 µM [inhibitor, single point], C[C@H]1CCC[C@]2(C)C[C@H]3OC(=O)C(CN4CCCCCC4)[C@H]3C=C12 (some centres not stated) 28.2 µM [inhibitor, single point], CC(/C=C/C(=O)NO)=C\[C@@H](C)C(=O)c1ccc(N(C)C)cc1 35.5 µM [inhibitor, single point], CCOC(=O)c1nnc(-c2ccccc2)nc1NCc1ccccc1 50.1 µM [inhibitor, single point], c1ccc(-c2nc(NCc3cccnc3)c3ccccc3n2)cc1 20 µM [inhibitor, partial curve], CN(C)n1cccc1/C=C(\C#N)S(=O)(=O)c1ccc(Cl)cc1 15.8 µM [inhibitor, partial curve], Cc1cc(N2CC(C(=O)NCc3cccs3)CC2=O)ccc1C(C)C (configuration not stated) 22.4 µM [inhibitor, partial curve], O=C1/C(=C/c2cccc(Cl)c2)SC(=S)N1CCC(=O)N1CCCCC1CCO (configuration not stated) 31.6 µM [inhibitor, partial curve], Cc1ccc(S(=O)c2ccc(C)cc2)cc1 39.8 µM [inhibitor, single point], COc1ccc(CN(C(=O)c2cccs2)C(C(=O)NC2CCCCC2)c2ccc3ncccc3c2)cc1 (configuration not stated) 12.6 µM [inhibitor, partial curve], O=C1NC2(CCCCC2)N=C1c1ccccc1 39.8 µM [inhibitor, single point], COC(=O)c1ccc(COc2ncnc3c(Cl)cc(Cl)cc23)o1 35.5 µM [inhibitor, partial curve], CCCCCCCNC(=O)C1(CC2CC(c3ccc(Cl)cc3)=NO2)CCN(C(=O)CCCCCBr)CC1 (configuration not stated) 20 µM [inhibitor, partial curve], CCCC(=O)NC(Nc1cccc(C(F)(F)F)c1)C(Cl)(Cl)Cl (configuration not stated) 31.6 µM [inhibitor, partial curve], CC1CCN(S(=O)(=O)c2ccc3c(c2)oc(=O)n3CC(=O)NCc2ccc3c(c2)OCO3)CC1 3.98 µM [inhibitor, full curve], CC(=O)NN1C(=O)/C(=C/c2ccc(C(C)C)cc2)SC1=S 31.6 µM [inhibitor, partial curve], N/C(Cc1ccc(Cl)cc1)=N\OC(=O)C1CCCCC1 50.1 µM [inhibitor, single point], COc1ccc(Cn2cccc(NC(=O)Nc3ccc(F)cc3)c2=O)cc1 12.6 µM [inhibitor, partial curve], CCN1/C(=C/C=C/C=C/c2sc3ccccc3[n+]2CC)Sc2ccccc21 20 µM [inhibitor, partial curve], CCN1C(=O)CSC1=NC1C2CC3CC(C2)CC1C3 (configuration not stated) 39.8 µM [inhibitor, partial curve], O=C1CSC(=S)N1CC1CCCO1 (configuration not stated) 39.8 µM [inhibitor, single point], COc1ccc(Oc2ccccc2C=O)cc1 39.8 µM [inhibitor, partial curve], O=C(NC1CCCc2ccccc21)c1n[nH]c(=O)c2ccccc12 (configuration not stated) 35.5 µM [inhibitor, partial curve], O=[N+]([O-])c1cc(Br)c2nsnc2c1N1CCOCC1 35.5 µM [inhibitor, partial curve], O=S(=O)(Nc1ccc2nc(C(F)(F)F)[nH]c2c1)c1ccccc1 31.6 µM [inhibitor, single point], CCc1ccc(C2CC(=O)NC(SCC(=O)OC(C)C)=C2C#N)cc1 (configuration not stated) 50.1 µM [inhibitor, single point], COc1ccc(-c2ccc(=O)n(Cc3cccc(Cl)c3)n2)cc1 35.5 µM [inhibitor, single point], NC(=O)c1c(NC(=S)Nc2ccccc2)sc2c1CCCC2 31.6 µM [inhibitor, single point], Cc1cc(C(=O)OCC(=O)c2ccc3c(c2)OCCO3)c(C)o1 31.6 µM [inhibitor, partial curve], CCOc1ccc(N2CC(C(=O)Nc3nnc(Cc4ccc(OC)c(OC)c4)s3)CC2=O)cc1 (configuration not stated) 22.4 µM [inhibitor, single point], CCOc1ccc2oc(C(=O)Nc3ccc(N4CCOCC4)cc3)c(C)c2c1 22.4 µM [inhibitor, partial curve]

Potency, inactive:
N[C@@H](CCS(=O)O)C(=O)O

Activity change, negative = displacement, inactive:
O=C(/C=C/c1cccs1)Nc1cccnc1 -5.38%, COc1ccc(NC(=O)c2cc(-c3cccnc3)nc3ccc(C)cc23)cc1OC -7.99%, Cc1ccccc1OCC(=O)Nc1ccccc1N1CCCCC1 52.6%, O=C(COc1ccccc1)Nc1nnc(C23CC4CC(CC(C4)C2)C3)s1 -7.42%, Cc1ccc(NCc2ccccc2OCc2ccccc2F)cc1 5.52%, COc1cccc(NC(=O)Nc2ccc3c(c2)CCC3)c1 -17.9%, O=S(=O)(c1ccc(OCC(O)CN2CCN(c3ccccc3)CC2)cc1)N1CCOCC1 (configuration not stated) -3.92%, COc1cc(/C=N/NS(=O)(=O)c2ccc3ccccc3c2)ccc1OCc1ccc(C(=O)O)cc1 -1.05%, CCOC(=O)c1cnc(-n2nc(C)cc2C)nc1NC -13.7%, Cc1cc(C)c(C(=O)Nc2ccc(Br)c(C(F)(F)F)c2)c(C)c1 -13.5%, CCCCNc1nc(N)nc(-c2cc(Cl)ccc2O)n1 -9.5%, Cc1cccc(/C=N\NC(=O)c2ccc(Cl)cc2)c1O -1.96%, COc1ccc(-c2nc(CCNC(=O)c3ccccc3)cs2)cc1OC -6.14%, O=C(c1ccc2c(c1)N(Cc1c(F)cccc1Cl)C(=O)c1ccccc1S2)N1CCCC1 -17.9%, CC(=O)Nc1ccc(NC(=O)C2c3ccccc3Oc3ccccc32)cc1 -0.594%, COC(=O)c1ccc(C(c2c(N)n(Cc3ccccc3)c(=O)n(C)c2=O)N2CCOCC2)cc1 (configuration not stated) -5.77%, CC(=O)Nc1cccc(/C(C)=N/NC(=O)c2cccs2)c1 -12.6%, Cc1cccc(N(CC(=O)NCCSc2nc3ccccc3s2)S(=O)(=O)c2ccccc2)c1 -8.26%, Fc1ccc(Br)cc1SCCc1ccncc1 -4.98%, COc1ccc(-n2nc([N+](=O)[O-])c(=NCc3cccnc3)n2O)cc1 -15.8%, CN(C)CCCOC(=O)c1ccccc1 -12.7%, O=C(Oc1cc2oc(=O)cc(-c3ccccc3)c2cc1Cl)C1CCCCC1 315%
